Measurements from PubChem BioAssay AID504832 (National Center for Advancing Translational Sciences (NCATS), 2011).
The whole screen tested about 310,000 compounds, of which about 18,000 (5.8%) were called active. The inconclusive results got no clear call from the source; some entries with a clear call stand among them for comparison. Calls come from the whole dose curve; as a rule, active = well fitted inhibition curve with a large enough effect; inconclusive = small, poorly fitted or top-dose-only effect, or another doubt; inactive = no such curve, though single readings can be large or run the other way. Potencies of inconclusive entries are left out as doubtful fits.

Test: Primary qHTS for delayed death inhibitors of the malarial parasite plastid, 48 hour incubation
Conditions: P. falciparum luciferase growth in erythrocytes; series mostly up to 28.7 µM; activity change, negative = inhibition: at the top concentration
Summary of the method: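 Erythrocytes infected with P. falciparum carrying an integrated firefly luciferase reporter (2% hematocrit, 0.1% parasitemia final) were exposed to compounds in RPMI 1640 with 0.5% Albumax at 37 C, 5% CO2. Growth inhibition was scored as reduced luminescence.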
% is set by controls: 0 for no effect and ±100 for the full control effect; potency is the fitted concentration of half-maximal effect; tags give direction and shape of the fitted curve.

| Compound | Potency | activity change, negative = inhibition |
| --- | --- | --- |
| O=C(CCN1C(=O)/C(=C/c2ccc3c(c2)OCO3)SC1=S)Nc1cccc(C(=O)O)c1 | inconclusive [inhibitor, single point] |  |
| CCCCCCn1c2c(c(=N)c3c1CCC3)CCC2 | active: 0.208 µM |  |
| COc1cc2c(cc1OC)C1O[C@](CCCCN3C(=O)c4ccccc4C3=O)(C2)Oc2c1c(=O)oc1ccc(F)cc21 | inconclusive [inhibitor, single point] |  |
| CC1=C(C(=O)OC(C)C)C(C)NC(=O)N1 (stereo not drawn) |  | inactive: 0% |
| NCc1ccc(-c2nc3ccccc3o2)cc1 |  | inactive: 84.6% |
| CCOc1ccc(/C=C/C(=O)OCC(=O)NCCc2ccc(OCC)c(OCC)c2)cc1OC | inconclusive [inhibitor, single point] |  |
| Cc1ccc(N2CC(C(=O)NCCS(=O)(=O)N3CCN(c4ccccc4F)CC3)CC2=O)cc1 (stereo not drawn) |  | inactive: 13% |
| CC(=O)N1CCN(S(=O)(=O)c2cccc(C(=O)Nc3ccc(OC(F)F)cc3)c2)CC1 | inconclusive [inhibitor, single point] |  |
| COc1cc(/C=C/c2cccc[n+]2C)ccc1OCC(=O)Nc1ccccc1C | inconclusive [inhibitor, full curve] |  |
| CN(C)S(=O)(=O)Oc1cccc(C(=O)Nc2ccc(Cl)c(Cl)c2)c1 |  | inactive: 85.8% |
| O=C(c1cnn2c1NC(c1ccco1)CC2C(F)(F)F)N1CCN(c2cccc(Cl)c2)CC1 (stereo not drawn) | inconclusive [inhibitor, partial curve, poor fit] |  |
| Cc1sc(NC(=O)CSc2nnc(C)c(=O)[nH]2)c(C#N)c1C |  | inactive: 15% |
| O=C1C2CC=C(Cl)CC2C(=O)N1CCC[n+]1cccc2ccccc21 (stereo not drawn) | active: 9.28 µM |  |
| CCn1c(=O)n(CC)c2cc(NS(=O)(=O)c3ccccc3)ccc21 |  | inactive: 9.34% |
| COc1ccc(-c2cccc(C3CC=CC4C3C(=O)N(Cc3ccccc3)C4c3ccc(OC)c(Cl)c3)c2)cc1 (stereo not drawn) | active: 11.7 µM |  |
| COc1ccc(OC)c(/C=C/C(=O)N2C(=O)c3cccc(N)c3C2=O)c1 |  | inactive: 8.51% |
| Cc1ccc2c(c1)[nH]c1c(N3CCN(Cc4ccc5c(c4)OCO5)CC3)ncnc12 | active: 2.94 µM |  |
| CCCc1[nH]nc2c1C1(C(=O)N(Cc3ccccc3)c3ccccc31)C(C(=O)OC)=C(N)O2 (stereo not drawn) | inconclusive [inhibitor, single point] |  |
| CC(=O)c1ccc(S(=O)(=O)N(C)CC(=O)Nc2ccc(C)cc2)cc1 | inconclusive [inhibitor, single point] |  |
| COC(=O)N(NC(=O)C(O)(CCC(C)C)CCC(C)C)c1ccccc1 |  | inactive: 18.1% |
| CC(=O)Nc1ccc(-n2nnnc2SCC(=O)Nc2cccc(NC(=O)c3ccco3)c2)cc1 | inconclusive [inhibitor, full curve, poor fit] |  |
| Cc1c(C(=O)O)oc2ccc(S(=O)(=O)NC3CCCCCCC3)cc12 | inconclusive [inhibitor, partial curve, poor fit] |  |
| COc1cccc2c1C(=O)c1c(O)c3c(c(O)c1C2=O)C[C@@](O)(C(=O)CO)C[C@@H]3O[C@H]1C[C@H](N)[C@H](O)[C@H](C)O1 | active: 0.147 µM |  |

| Compound | Potency | activity change, negative = inhibition |
| --- | --- | --- |
| O=C1C=C(c2ccc(Oc3ccccc3)cc2)C[C@@H](c2ccc(F)cc2)C1 | inconclusive [inhibitor, single point] |  |
| CC(C)(C)c1ccc(C(=O)N2CCN(CCNC(=O)C(=O)NCc3ccccc3)CC2)cc1 | inconclusive [inhibitor, single point] |  |
| COc1ccc(N2C(=S)NC3CS(=O)(=O)CC32)cc1 (stereo not drawn) | inconclusive [inhibitor, partial curve, poor fit] |  |
| O=c1c2ccccc2nc(/C=C/c2ccc(O)cc2)n1CCc1ccccc1 | inconclusive [inhibitor, single point] |  |
| Cc1cccc(/C=N/Nc2cc(N3CCOCC3)nc(N3CCOCC3)n2)c1 | inconclusive [inhibitor, single point] |  |
| Cc1ccc(S(=O)(=O)N(C)C(C)CCc2ccco2)cc1 (stereo not drawn) | inconclusive [inhibitor, full curve] |  |
| CCOc1ccc(C2C(C#N)=C(N)Oc3cc(C)n(Cc4ccco4)c(=O)c32)cc1OC (stereo not drawn) | inconclusive [inhibitor, single point] |  |
| CC(C)(C)NC(=S)NC(=O)C12CC3CCC(CC(C3)C1)C2 | active: 10.4 µM |  |
| O=C(c1cc2nc(-c3ccco3)cc(C(F)(F)F)n2n1)N1CCN(Cc2ccccc2)CC1 | inconclusive [inhibitor, single point] |  |
| O=C(Nc1ccccc1)c1ccccc1OCc1cccc([N+](=O)[O-])c1 |  | inactive: -6.91% |
| O=C(Nc1nonc1NC(=O)c1cccs1)c1cccs1 |  | inactive: 6.42% |
| CC[C@@]12C(=O)N(c3ccc(OC)cc3)C(=O)N1[C@H](c1ccc(Cl)cc1)[C@@H]1C(=O)N(C3CCCCC3)C(=O)[C@@H]12 | inconclusive [inhibitor, single point] |  |
| CCCNC(=O)Nc1cc(OCC)c(N2CCOCC2)cc1OCC | inconclusive [inhibitor, partial curve, poor fit] |  |
| COc1ccc(Cn2c(N)c(C#N)c3nc4ccccc4nc32)cc1 | active: 4.65 µM |  |
| Cc1ccc(NC(=O)c2cnccn2)cc1C |  | inactive: 156% |
| O=C(N/N=C/c1ccc(Cl)cc1)c1ccc2c(c1)OCO2 |  | inactive: 84.8% |
| Nc1ccn(C2CC(O)C(CO)O2)c(=O)n1 (stereo not drawn) |  | inactive: 24.6% |
| COc1cccc2c1[C@@H]1CN(CCCCn3c(=O)[nH]c4c(sc5ncc(-c6ccccc6)nc54)c3=O)C[C@@H]1CO2 | inconclusive [inhibitor, single point] |  |
| COc1ccc(C(=O)Nc2nc3ccccc3[nH]2)cc1S(=O)(=O)N1CCCC1 |  | inactive: -26.9% |
| O=C(CCNC(=O)c1ccc(Cl)cc1)NCC(c1ccco1)N1CCCC1 (stereo not drawn) | active: 11.7 µM |  |
| COC(=O)c1ccc(NC(=O)Nc2ccc([N+](=O)[O-])cc2)cc1 | inconclusive [inhibitor, partial curve, poor fit] |  |
| COc1ccc(C(=O)OCC(=O)c2ccc(Cl)s2)c(OC)c1OC |  | inactive: 9.16% |
| COc1ccccc1NC(=O)c1ccc(NC(=O)COC(=O)c2ccc(O)cc2)cc1 | inconclusive [inhibitor, single point] |  |

| Compound | Potency | activity change, negative = inhibition |
| --- | --- | --- |
| CCOC(=O)/C(=N/Nc1ccc(OC)cc1)N1CCCc2ccccc21 | inconclusive [inhibitor, single point] |  |
| O=[N+]([O-])c1ccc2[nH]c(O)c(N=NC(=S)Nc3cccnc3)c2c1 | inconclusive [inhibitor, partial curve, poor fit] |  |
| Cc1cc(C(=O)CN2C(=O)NC3(CCCCC3)C2=O)c(C)n1Cc1ccc2c(c1)OCO2 | inconclusive [inhibitor, single point] |  |
| C/C(CCc1oc2ccc(Cl)cc2c1-c1ccc(C)o1)=N\O |  | inactive: -8.08% |
| COc1cc2c(cc1OC)CN(CC(=O)Nc1ccccc1C(=O)NC1CC1)CC2 | inconclusive [inhibitor, single point] |  |
| CCOc1ccccc1N(C(=O)c1snc(C(N)=O)c1N)C(C(=O)NCc1ccccc1)c1ccc(O)cc1 (stereo not drawn) | active: 11.7 µM |  |
| Cc1ccc(OCC(=O)NCC2CCCO2)c(C)c1 (stereo not drawn) |  | inactive: 17.5% |
| Cc1[nH]c2ccccc2c1C(C[N+](=O)[O-])c1cccs1 (stereo not drawn) | inconclusive [inhibitor, partial curve] |  |
| O=C(N/N=C/c1ccncc1)c1cccc(NC(=O)c2ccc(Cl)cc2)c1 | active: 13.1 µM |  |
| Cc1[nH]c2ccccc2c1C(O)CN1CCN(c2cccc(C(F)(F)F)c2)CC1 (stereo not drawn) | inconclusive [inhibitor, partial curve, poor fit] |  |
| CN1CC(C(=O)c2ccc([N+](=O)[O-])cc2)C(c2ccc(Cl)cc2)C1 (stereo not drawn) | inconclusive [inhibitor, partial curve, poor fit] |  |
| COC(=O)CC1=C(C(=O)OC)C(c2ccc3c(c2)OCO3)C(C#N)=C(N)O1 (stereo not drawn) | inconclusive [inhibitor, full curve, poor fit] |  |
| O=C(Nc1cccc(S(=O)(=O)N2CCCCC2)c1)C1CCCN1S(=O)(=O)c1ccccc1F (stereo not drawn) | active: 10.4 µM |  |
| COc1ccc(NC(=O)CC2CC3CCC2C3)cn1 (stereo not drawn) |  | inactive: 23.6% |
| CCOc1ccccc1N(CC(=O)NC1CCCCC1)S(=O)(=O)c1ccccc1 | inconclusive [inhibitor, partial curve, poor fit] |  |
| CCCC(=O)C1=C(O)C(C(=O)OC)C(C)(C)CC1=Nc1ccc(OC)cc1 (stereo not drawn) | inconclusive [inhibitor, single point] |  |
| O=C(Nc1cccc(F)c1)c1cccc(S(=O)(=O)N2CCOCC2)c1 | inconclusive [inhibitor, single point] |  |
| Cn1c(=O)oc2cc(S(=O)(=O)CCC(=O)NCCc3ccccc3)ccc21 | inconclusive [inhibitor, partial curve, poor fit] |  |
| CSc1nc(NCC(C)O)c2c3c(sc2n1)CN(C)CC3 (stereo not drawn) | inconclusive [inhibitor, single point] |  |
| O=C(CN(Cc1ccccc1)S(=O)(=O)c1ccc2c(c1)OCCO2)Nc1ccc2c(c1)OCCO2 | inconclusive [inhibitor, single point] |  |
| CC(=O)N1CCC(=NNC(=O)c2cc3ccccc3cc2O)CC1 | inconclusive [inhibitor, single point] |  |
| Cc1[nH]n(-c2ccc([N+](=O)[O-])cc2)c(=O)c1C=NCCc1c(C)[nH]c2ccccc12 | inconclusive [inhibitor, single point] |  |
